Whole data set: some 110,000 compounds, median “z-score” near -0.1, cut for the highest 2% near 2. Some of the results follow.
What follows are molecules tested against Metabotropic glutamate receptor 8 (Rattus norvegicus) (UniProt P70579) (assay: mGluR8 Gi/Go-coupled signaling modulation – cell-based, rat, thallium flux, HTS, primary screen (AID 488969)). Conditions: HEK293 rat mGluR8, GIRK (G protein-gated inwardly rectifying potassium channel) thallium flux, FluoZin2; at 10 µM; stronger effect = higher value; submaximal glutamate (EC20) added with thallium.
Sequence of UniProt P70579 (P70579 whole entry, looked up): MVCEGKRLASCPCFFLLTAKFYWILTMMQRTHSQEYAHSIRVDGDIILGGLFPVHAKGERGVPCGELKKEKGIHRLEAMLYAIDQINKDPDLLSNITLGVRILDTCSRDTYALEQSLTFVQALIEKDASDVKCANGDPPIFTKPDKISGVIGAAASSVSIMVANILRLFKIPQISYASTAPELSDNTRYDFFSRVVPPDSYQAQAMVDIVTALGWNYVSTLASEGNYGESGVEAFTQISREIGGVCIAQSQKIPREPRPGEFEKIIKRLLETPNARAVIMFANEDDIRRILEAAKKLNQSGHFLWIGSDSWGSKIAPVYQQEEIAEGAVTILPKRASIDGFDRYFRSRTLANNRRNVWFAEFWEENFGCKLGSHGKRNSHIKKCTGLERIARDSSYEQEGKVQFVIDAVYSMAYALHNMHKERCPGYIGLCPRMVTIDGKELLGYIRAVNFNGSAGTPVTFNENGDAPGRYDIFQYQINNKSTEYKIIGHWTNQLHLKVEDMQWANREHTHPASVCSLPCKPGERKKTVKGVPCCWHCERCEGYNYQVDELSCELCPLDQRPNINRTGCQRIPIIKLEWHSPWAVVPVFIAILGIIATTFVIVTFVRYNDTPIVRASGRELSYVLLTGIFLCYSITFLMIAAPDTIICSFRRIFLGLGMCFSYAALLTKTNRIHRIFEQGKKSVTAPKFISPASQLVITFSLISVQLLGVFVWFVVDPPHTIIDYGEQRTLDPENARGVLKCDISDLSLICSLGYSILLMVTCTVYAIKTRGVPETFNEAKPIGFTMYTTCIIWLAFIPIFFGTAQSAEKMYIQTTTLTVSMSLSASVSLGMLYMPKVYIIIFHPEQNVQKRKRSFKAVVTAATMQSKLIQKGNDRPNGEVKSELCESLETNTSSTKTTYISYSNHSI
Work on `CCOc1ccc(C2C(C(=O)C3CC3)N3C=C(C#N)C=CC3C2(C#N)C#N)cc1` (stereo not drawn) yielded a z-score of -0.215. `CN1CCN(C(=O)c2ccc(NS(=O)(=O)c3ccccc3)cc2)CC1` showed a z-score of -0.282. `Cc1cc(-c2ccccc2)c2c3c(c(-c4ccccc4)n2n1)c(=O)n(C)c(=O)n3C` gave a z-score of -0.343. Work on `Cc1ccc(OS(=O)(=O)c2ccccc2)c(/C=N/N=C2\NC(=O)C(C)S2)c1` (stereo not drawn) yielded a z-score of -0.426. For `COc1ccc(OC)c(S(=O)(=O)N(C)CC(=O)N2CCN(c3cccc(Cl)c3)CC2)c1`, the z-score was -2.42. `C/C(=N\NC(=O)CSCc1ccccc1Br)c1cccc([N+](=O)[O-])c1` was tested, and the z-score was -0.0139. `O=C(NCCSCc1ccco1)c1ccc(CN2CCOCC2)cc1` was tested, and the z-score was -0.442. `CCCCOC(=O)c1ccc(NC(=O)c2cnc3n(c2=O)CCS3)cc1` gave a z-score of 0.203. Molecule `CCOC(=O)c1c(NC(=O)C(=O)N/N=C/c2ccc(OCC)cc2)sc2c1CCCCC2` has a z-score of -0.218. `O=[N+]([O-])c1cc([N+](=O)[O-])c2cccnc2c1Oc1ccccc1O` showed a z-score of 0.0375. With `CCOC(=O)C(NC(=O)CC)(Nc1sc(C)c(CC)c1C#N)C(F)(F)F` (stereo not drawn) the z-score was 0.00232. `O=C(Nc1ccc(Cc2ccncc2)cc1)C1CCC(N2C(=O)C3C4C=CC(C5CC45)C3C2=O)CC1` (stereo not drawn) gave a z-score of -0.424. In the case of `Cn1sc(NC(=O)c2ccc(Cl)cc2)nc1=O`, the z-score is reported as 0.266. `CCC(=O)Nc1nc2cc(OC)ccc2s1` was tested, and the z-score was 1.81. With `CCOC(=O)c1cc2sc(C)cc2n1CC(=O)N(CC)CC` the z-score was -0.063. With `O=C(CN1C(=O)NC2(CCCc3ccccc32)C1=O)Nc1cccc(S(=O)(=O)N2CCCCC2)c1` (stereo not drawn) the z-score was -0.286. `O=c1c2sc3nc(N4CCOCC4)c4c(c3c2nnn1Cc1ccccc1)CCCC4` showed a z-score of -0.443. `COc1ccc(-n2nccc2-c2nn(-c3cccc(OC)c3)c(=O)n(C)c2=O)cc1` showed a z-score of -0.177. Molecule `CN(Cc1ccccc1)C(=O)Nc1ccccc1` has a z-score of -0.205. `CCOc1ccc(C(=O)Nc2ccc3c(c2)OCCO3)cc1OC` gave a z-score of -0.705. `CCOc1nc(NC(C)C)nc(NC(C)C)n1` was tested, and the z-score was -0.0254. Molecule `Cc1cccc(CS(=O)(=O)Cc2ccc(C(=O)NCc3ccco3)o2)c1` has a z-score of 0.36. With `CCOc1ccc(C2=Nc3ccccc3C(c3ccc(N4CCOCC4)cc3)=NN2)cc1` the z-score was 0.262. In the case of `CN1C(=O)CC(c2ccco2)Sc2ccccc21` (stereo not drawn), the z-score is reported as 0.571. `COc1ccc(NC(=O)ON=C2c3ccccc3-c3ccccc32)cc1` gave a z-score of -0.204. `CCOC(=O)C1(C)NC(c2ccccc2F)C2C(=O)N(c3cccc(C(C)=O)c3)C(=O)C21` (stereo not drawn) gave a z-score of 0.00621. In the case of `COC(=O)c1ccc(NC(=O)COC(=O)c2cccc3c(=O)c(C)c(-c4ccccc4)oc23)cc1`, the z-score is reported as -0.521. In the case of `Cc1cc(CCN2CCC(=O)NC2=O)ccc1OC(C)C`, the z-score is reported as -0.169. With `COc1cc(Br)c(C(C)NC(=O)c2cccc(Br)c2)cc1OC` (stereo not drawn) the z-score was -0.249. With `Cn1c(C(=O)Nc2ccc3c(c2)OCCO3)cc2c(=O)n(C)c3ccccc3c21` the z-score was -1.24. `O=C1CCc2cc(S(=O)(=O)N3CCN(c4ccccc4F)CC3)ccc2N1` showed a z-score of 0.0515. `CC1(C)CC2CC(C)(CN2S(=O)(=O)c2ccc(C(=O)Nc3cccc(S(=O)(=O)N4CCOCC4)c3)cc2)C1` (stereo not drawn) was tested, and the z-score was 0.167. `CCCN1Cc2cccc(C(=O)NC(C)c3cccs3)c2C1=O` (stereo not drawn) gave a z-score of -1.53. Work on `O=S(=O)(NCCSc1nnc(-c2ccco2)n1-c1ccccc1)c1ccccc1` yielded a z-score of -1.33. Molecule `Cn1c(Oc2ccccc2NCc2cc(Br)ccc2O)cc(=O)n(C)c1=O` has a z-score of -0.0923. With `COc1ccc(N2CCN(C(=O)c3ccc(Oc4ccc(C(F)(F)F)cn4)cc3)CC2)cc1` the z-score was 0.0329. Work on `COc1ccc(CNC(=O)c2cc3c(=O)n4ccccc4nc3n(Cc3cccnc3)c2=N)cc1` yielded a z-score of 0.325. In the case of `COc1ccc(C)cc1S(=O)(=O)N(CC(=O)N1CCOCC1)Cc1ccccc1`, the z-score is reported as -0.348. With `O=C(COC(=O)C1CCN(S(=O)(=O)c2ccc3c(c2)OCCO3)CC1)Nc1cccc2ccccc12` the z-score was -0.122. `C=CCc1cccc2cc(C(=O)N(CC)CC)c(=O)oc12` gave a z-score of 0.119. `Cc1cc(C)cc(CC2CC(=O)N(c3ccc(Cl)cn3)C2=O)c1` (stereo not drawn) gave a z-score of -0.0948. Molecule `Cc1ccc(Cl)cc1NC(=O)CC1NCCNC1=O` (stereo not drawn) has a z-score of 0.0248. For `COc1ccccc1NC(=O)CCc1c(C)[nH]c(=O)c(C#N)c1C`, the z-score was 0.136. Work on `O=c1c2cn[nH]c2[nH]c(=S)n1-c1ccccc1F` yielded a z-score of 0.188. For `CC(=O)NCCN1C(=O)C2C3c4ccccc4C(c4ccccc43)C2C1=O` (stereo not drawn), the z-score was -0.191. For `CC1(C)C(c2cccs2)=[N+]([O-])C2(CCCCC/C2=N\O)N1O` (stereo not drawn), the z-score was 0.245. Work on `O=C(CCn1c(=O)sc2ccccc21)Nc1nc2ccccc2s1` yielded a z-score of -0.943. `O=C(Cc1ccccc1)NCCc1ccc(Cl)cc1Cl` was tested, and the z-score was 0.107. Molecule `CC1=CS/C(=C(/C#N)C(=O)NCc2ccco2)N1c1ccccc1` has a z-score of -0.559. In the case of `C=CCn1c(COc2ccccc2)nnc1SCC(=O)NCC(=O)OCC`, the z-score is reported as 0.856. `O=c1c2ccccc2nc(SCc2cn3ccsc3n2)n1-c1ccccc1` was tested, and the z-score was -2.57. For `O=C(CCn1nnc(-c2cccs2)n1)NC1CCCCC1`, the z-score was -0.311. In the case of `CCCC(c1nnnn1Cc1ccco1)N1CCN(C(=O)c2ccco2)CC1` (stereo not drawn), the z-score is reported as -0.0404. In the case of `CC12C(=O)N(c3ccc(C(=O)N4CCOCC4)cc3)C(=O)C1C1c3ccccc3C2c2ccccc21` (stereo not drawn), the z-score is reported as -0.236. Work on `O=C(C1CCCCC1)N1CCC(c2nc3ccccc3[nH]2)CC1` yielded a z-score of -0.166. Work on `Cc1cc(-c2ccccc2)nc(Cl)c1C#N` yielded a z-score of -0.108. `O=c1[nH]c(CCC2CCCC2)nc2ccccc12` was tested, and the z-score was -0.143. `Cn1c(=O)n(C)c2cc(S(=O)(=O)NCCOCCO)ccc21` was tested, and the z-score was 0.0941. In the case of `CCn1c(CNc2ccc(OC)cc2)nnc1SCC(=O)Nc1ccc(F)cc1`, the z-score is reported as -0.176. Molecule `CNC(=O)c1cccn1-c1ccsc1C(=O)OC` has a z-score of -0.114. In the case of `COc1ccc(S(=O)(=O)N2CCC(C(=O)Nc3ccc4c(c3)OCCO4)CC2)cc1OC`, the z-score is reported as 0.311. In the case of `Cc1ccc(SCC(=O)NC(C)(C)C)cc1`, the z-score is reported as 0.0907. `O=C(CN1C(=O)c2ccccc2C1=O)Nc1nc(-c2cccc([N+](=O)[O-])c2)cs1` gave a z-score of -0.19. In the case of `CCn1c(=O)c(C(=O)NCc2cccnc2)c(O)c2ccccc21`, the z-score is reported as -0.286. For `CCCSc1nnc(C(C)C)n1N`, the z-score was 0.266. For `Cc1ccc(C(=O)Nc2ccc3cn[nH]c3c2)cc1S(=O)(=O)N1CCCCC1`, the z-score was -0.657. `O=C(NCc1ccco1)c1ccccc1Br` showed a z-score of 0.0939. `OC(COCC1COc2ccccc2O1)CN1CCN(c2ccccc2)CC1` (stereo not drawn) gave a z-score of 0.108.

Source: PubChem BioAssay AID488969 (Vanderbilt High Throughput Screening Facility, 2010)
